# PMC5836133
# The other results are listed elsewhere or left out. At the low end of the ranking, values are background and their order means little.
# System: T1, GST-NbGlk1(82-244)
# T1 sequence: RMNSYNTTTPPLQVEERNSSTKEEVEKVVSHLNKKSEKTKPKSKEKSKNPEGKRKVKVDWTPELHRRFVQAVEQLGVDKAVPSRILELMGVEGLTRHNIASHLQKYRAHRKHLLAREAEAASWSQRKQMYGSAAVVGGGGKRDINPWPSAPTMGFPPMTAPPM
# Assay: protein-binding microarray;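 also: rank-based score ranging −0.5 to +0.5 with E above 0.45 taken as significant binding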
# Details: NbGlk1 is a Golden2-like transcription factor of Nicotiana benthamiana; high values mean tight binding; most listed sequences are background and not binding sites; double strand, one strand shown
row,Sequence,binding signal [E-score]
1,ATGTAAAT,0.196
2,ACGCCATA,-0.035
3,AGCGGTCC,-0.303
4,ATAAACTG,-0.0273
5,AGCGCTTC,-0.112
6,AATCTAAA,0.403
7,ATAATCCC,0.212
8,ACGCCGTC,-0.249
9,ACAGTGAC,-0.124
10,AAGCGTGT,-0.174
11,AATGGGAG,-0.0719
12,AATATCAC,0.34
13,CAACGAAA,0.0656
14,ATTACAAT,0.347
15,AGAAACCT,-0.0687
16,ACATCTTA,0.0642
17,ATCCACAA,0.29
18,ACTTCACT,-0.156
19,ACTCCATG,-0.198
20,ACAGTAGC,-0.0641
21,ATTGCATC,0.196
22,CAAACCTC,-0.092
23,ATCGACAA,0.0391
24,ATTTGGTC,0.18
25,ATTATGGC,0.0912
26,AGTCTGAC,-0.139
27,AGAACGAA,0.0167
28,AGACCAGA,-0.151
29,ATGAACTG,-0.015
